Test results as given in publication PMC12136788.
This is one part of the list.

B1: 99997043_99997940_968_CDS_ENSMUSG00000021012_ENSMUST00000110105|mouse|control|control (ssRNA)
RNA: GGGAGUUCUACAGUCCGACGAUCAAAGUUUUCGUCCUCAAUACUCAUUUUAUCCAAGUUGUUUCUGAAGAAGGGGCUAUAAGUGUCUUCUACGCUGCUAAGCACUGGUGGCUCACACAACCGUCCUGCUUCGGAUACCUGGCUCAACAGAGGAUUGAGCAUCA
B2: 52701090_52703304_1850_CDS_ENSMUSG00000004535_ENSMUST00000080723|mouse|control|control (ssRNA)
RNA: GGGAGUUCUACAGUCCGACGAUCCUGAACUUUGUAGUUAUCCUCUACUUCAGCUAGUUCAAGUUUUACAUUUUCAGCAAUUUUCACUUGUUCUUUCCACUUCAGCUCCAUUUUGGCAAGUUCUUCAGCGUAUUUAUUGCACUUCAACAGAGGAUUGAGCAUCA
B3: chr7:155493584:155493585:+_ENSG00000184863_ENST00000401878|hu_mus|motif|central (ssRNA)
RNA: GGGAGUUCUACAGUCCGACGAUCAGAAAGUUCCAAAGUUUCUGGAAUGUUCCUUCUCUCUCUAGUUACAUCUGAAAGCCGGAUAAUUGUUCCUUCUUUCCUUUCAGUUUUAAAACGUAAUCGUCCAGAUUCUUCAUCAUCAUCCAACAGAGGAUUGAGCAUCA
B4: chr1:39494564:39494565:+_ENSG00000168653_ENST00000372967|hu_hu|hu_hu_hu_mus_True|1_98 (ssRNA)
RNA: GGGAGUUCUACAGUCCGACGAUCAUGCAUUCGCCUCAUCGUUUUCUACCGAAGCAAGCACUCUUCGAAGUCAUCGAACUCUAUCUUGCACUCCUUUUUCGCCCGGGUCCCACCGAUCCCGUGUGCACACUCUAUCCAUUCUUUCAACAGAGGAUUGAGCAUCA
B5: 204520434_204520554_3319_3pUTR_ENSG00000198625_ENST00000367182|human|control|control (ssRNA)
RNA: GGGAGUUCUACAGUCCGACGAUCUAUUGCCUUGGUGUAAGCAGCUCCAGAGGCACUAAACAAAAGGAUCAAAAAAAAUCUAAAUGACUCCUAAGACGCAAAGAGGGUAGGGGGCAGUAGCUCAGGACUGCAAUCCUAGCACUUCAACAGAGGAUUGAGCAUCA
B6: chr22:32879901:32879902:+_ENSG00000100225_ENST00000397426|hu_mus|hu_hu_hu_mus_False|1_98 (ssRNA)
RNA: GGGAGUUCUACAGUCCGACGAUCCUCUUCCAUACUCGCAUUAUCUUGAAUUGACUCAGCUUCAACAUUUUGACUAGGCCCUUCCAUACUGUCAUCAGUCCAGGCAUCAAAUGGGGUGGCCUGUCCUUGGGAUGAAUCACUUGGCAACAGAGGAUUGAGCAUCA
B7: chr19:6374144:6374145:+_ENSMUSG00000024949_ENSMUST00000113487|mus_mus|FALSE|FALSE (ssRNA)
RNA: GGGAGUUCUACAGUCCGACGAUCUGGUCCAUUUGGGUUGUGCUGCAUGGGAUGCCCACCAUGCCCACCUGUCAGGCUGGGUAAUGGGUGUGGGAAGCUGUGGGGGCCACCUCCAGGACCACCAGGACCACCUCCAUGCAUGCCCAACAGAGGAUUGAGCAUCA
B8: chr12:73045124:73045125:+_ENSMUSG00000034574_ENSMUST00000085299|mus_hu|FALSE|FALSE (ssRNA)
RNA: GGGAGUUCUACAGUCCGACGAUCGCCUUGAGAGUUGUUCAUUAACGCCUUUAUACAGCCAAUGAGAGAAGUAUGUAUUCGAGACUCUGAGGUCUCGUAGUCCAUGGUCUUUAGAAAGUUGAGGAUACAUGAUAGGCCAUCCAACAACAGAGGAUUGAGCAUCA
B9: 1782286_1782559_860_CDS_ENSG00000132383_ENST00000254719|human|control|control (ssRNA)
RNA: GGGAGUUCUACAGUCCGACGAUCUGUGAACUGCUUGUUAGCAAUCUUCAGGGUGCCUUUCGAGAAAUAAUACACCUUGUUCACUUCAAUAAGAGGAAAGAACUUGUCCACUUGCUCAUUGAAAGCUGUAGCUCGGAUUUCACCCAACAGAGGAUUGAGCAUCA
B10: chr1:88248876:88248877:-_ENSMUSG00000026234_ENSMUST00000027438|perfect_dup|motif|central (ssRNA)
RNA: GGGAGUUCUACAGUCCGACGAUCUUCCAUUUUAUUACAGGAAUUUAAAGCUUCUUUAGCAUCUUCAAAUGAAGCAAAUUCGGUAAAUGCAUACCCUUUAGGUUUGCCAUGUGGGUUCUGGGGCACUUUGAUAAAAGUUGCUUUCAACAGAGGAUUGAGCAUCA
B11: chr6:38652254:38652255:-_ENSG00000124767_ENST00000373365|hu_hu|hu_hu_hu_mus_False|18_108 (ssRNA)
RNA: GGGAGUUCUACAGUCCGACGAUCCGAAAACUUCAUAGCAGGGAAGUCAAGCUUCUGCAGGAGGGUCAGUCCAAGAACCCUCGUAUAAAAAUCCAGGGACUUCUUAGGAUCCUUAAUUCGUAGCAUGGUUUGCUGCAGUAGAAACAACAGAGGAUUGAGCAUCA
B12: 141887142_141887986_1707_CDS_ENSMUSG00000041688_ENSMUST00000112835|mouse|control|control (ssRNA)
RNA: GGGAGUUCUACAGUCCGACGAUCAAUAAUCUGGGCAUGGAGGGUCUUAAUCCUUCCUUCCAUGUCCAAGCAACGCUUGUUGGCCAUCAGGAUUUCUUCCUCUUCCUUCUGGAUGCGGGCCUCUAAGGCUGUGUCAUAGCUGGUCAACAGAGGAUUGAGCAUCA
B13: chr8:73282188:73282189:+_ENSMUSG00000031840_ENSMUST00000034301|mus_mus|FALSE|FALSE (ssRNA)
RNA: GGGAGUUCUACAGUCCGACGAUCAGAGUGACAUCUGGUCCCCUCUUCACAACUGACAACUGUGGACGGGAUGGUUUACAAAAACAAAAUGGGGGUGGGGGGUAAAGGAGAGGGAGCAGCAGUGACCACAAUACACCACGGCCGCAACAGAGGAUUGAGCAUCA
B14: 25274920_25277050_2474_CDS_ENSG00000100994_ENST00000216962|human|control|control (ssRNA)
RNA: GGGAGUUCUACAGUCCGACGAUCGCAGGCGAUGUUCCUGAUGACCUUCUUGGUCCACUCCUUGGGGUUCCGGUACAGCUGGUCCACCUGUGCCUGGCACUGCAUGUAGGCUUCAUAGUCUGCAAACACCUUGAACCUGUCAUGCAACAGAGGAUUGAGCAUCA
B15: chr1:220379288:220379289:-_ENSG00000118873_ENST00000358951|hu_hu|FALSE|FALSE (ssRNA)
RNA: GGGAGUUCUACAGUCCGACGAUCUGAUGCUGCAGCUUUUGCUACCUGAUUUCGACAAGCACGAAGAGAUUGAAAAAGGCUAAAUCCAUCAAUAGUCACAAUGGCAGCUGGAUAUAAGAUACUCAACUCUUCAUUCUGCUCAGUCAACAGAGGAUUGAGCAUCA
B16: chr6:41067180:41067181:+_ENSG00000001167_ENST00000341376|hu_mus|FALSE|FALSE (ssRNA)
RNA: GGGAGUUCUACAGUCCGACGAUCAAACCCAAGCAUCUGCAUCAAAGGAAAGAAAACUCAAACUUGCCUACGAGGUUAGGGUUAUGUACAAACUUACAGACACGAAUAAAUAGCAUUCUACAACUGCUGGCUGAAGCGCUACUGCAACAGAGGAUUGAGCAUCA
B17: 113119565_113119685_3220_3pUTR_ENSMUSG00000042873_ENSMUST00000162280|mouse|control|control (ssRNA)
RNA: GGGAGUUCUACAGUCCGACGAUCCUCUCCAGAUCUCUCUCUCUCUCUCUCUCUCUCUCUCUCUCUCUCUCUCUCUCUCUCUCUCUCUCUCUCUCUCCAUUCUCUCCAUUCCUCCCUUUCCAUGCCUGUCGCCUGUCUCCUGCCCAACAGAGGAUUGAGCAUCA
B18: chr7:99056824:99056825:-_ENSG00000241468_ENST00000394186|hu_mus|FALSE|FALSE (ssRNA)
RNA: GGGAGUUCUACAGUCCGACGAUCUCAGUGGUACUUGCGUCGCCGCUCAUGUUUGAGUUCCUUGUAAGAAAUGCAGUAGCUGAAAACCACGUAGGCUGCCAGGACCAUGCUAAUCCCCGAGAUGCUGCCUUUCCGAACGUUGAUCAACAGAGGAUUGAGCAUCA
B19: 93998217_93998337_1080_3pUTR_ENSMUSG00000055932_ENSMUST00000069718|mouse|control|control (ssRNA)
RNA: GGGAGUUCUACAGUCCGACGAUCCCUCUCCUUGUUUCAAAACUGCAGGAUCAAAGGAUUUCAACGAGACGUCGCCAUCGUCUGAGUCAUUGAGGACAUUCUGCAGCGCCAACUGACAGCGUUCUAAGAUAUAAUCCAAGGUGCCAACAGAGGAUUGAGCAUCA
B20: chr9:59188957:59188958:-_ENSMUSG00000025235_ENSMUST00000026265|mus_mus|FALSE|FALSE (ssRNA)
RNA: GGGAGUUCUACAGUCCGACGAUCGGCCACCUGCUUGAGAUUAUCAGCACACUGUGGGCUGAGAACAGCACAUGUCUGAAAGAGUUCUAGGGAUUCUUGGAUAUUUCCUUCCAGGCGAAAAAUCAGUGCUUGGACAUAGAUAGCCAACAGAGGAUUGAGCAUCA
B21: chr6:40197388:40197389:+_ENSMUSG00000057716_ENSMUST00000061740|mus_mus|mus_mus_mus_hu_False|18_18 (ssRNA)
RNA: GGGAGUUCUACAGUCCGACGAUCGAGACACUGGGGUGGAUUUAUUCCACCUCUGUUUGGGUGCUAGCCACUAAGACUGUUAUUUUGGGAUUCAUGGCCUUGAAUAUCAAGAGGGAAGGGACGAGAAUGGAAAGAGUCAAGAGUCAACAGAGGAUUGAGCAUCA
B22: chr19:16212804:16212805:+_ENSG00000167460_ENST00000300933|hu_mus|hu_hu_hu_mus_False|58_58 (ssRNA)
RNA: GGGAGUUCUACAGUCCGACGAUCAACAAUUCUGGAGUGAAGGAAAGAUGUAACAUGGAACAGCAUUAAAGCUCAGUAUUACUAUAUAUGGGCAACAAUGAUCACCCCAGCAUUCUCGCUUGGAAUGCUUAAAGACAAUCUGUUCAACAGAGGAUUGAGCAUCA

Target: T1, UNK ZnF1-3 (human, UniProt Q9C0B0 31-174)
T1 sequence: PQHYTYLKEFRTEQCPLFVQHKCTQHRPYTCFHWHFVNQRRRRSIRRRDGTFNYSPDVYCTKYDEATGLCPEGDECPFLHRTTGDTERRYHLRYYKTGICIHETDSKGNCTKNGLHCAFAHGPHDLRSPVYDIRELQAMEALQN
Assay: nsRBNS (natural sequence RNA bind-n-seq); RBNS binding buffer (assumed for nsRBNS): 25 mM Tris pH 7.5, 150 mM KCl, 3 mM MgCl2, 0.01% Triton X-100, 500 ug/ml BSA, 20 U/ml SUPERase-In, 4 C; UNK is unkempt and MSI1 is Musashi-1; names of the RNAs are library labels; protein concentration not given here; high values mean tight binding

Binder | binding signal [enrichment R]
B1 | 0.661
B2 | 0.311
B3 | 0.78
B4 | 0.798
B5 | 1.64
B6 | 0.9
B7 | 0.674
B8 | 0.699
B9 | 0.826
B10 | 0.771
B11 | 0.531
B12 | 0.62
B13 | 1.96
B14 | 0.534
B15 | 1.15
B16 | 1.54
B17 | 0.404
B18 | 0.658
B19 | 1.14
B20 | 1
B21 | 1.23
B22 | 1.07
